# Experimental data taken from paper PMC12820563, “FoxP3 forms a head-to-head dimer in vivo and stabilizes its multimerization on adjacent microsatellites”.
# This is one part of the list.
# Biological target: T1, MBP-FoxP1dN (Mus musculus, UniProt P58462 326-579)
# T1 sequence: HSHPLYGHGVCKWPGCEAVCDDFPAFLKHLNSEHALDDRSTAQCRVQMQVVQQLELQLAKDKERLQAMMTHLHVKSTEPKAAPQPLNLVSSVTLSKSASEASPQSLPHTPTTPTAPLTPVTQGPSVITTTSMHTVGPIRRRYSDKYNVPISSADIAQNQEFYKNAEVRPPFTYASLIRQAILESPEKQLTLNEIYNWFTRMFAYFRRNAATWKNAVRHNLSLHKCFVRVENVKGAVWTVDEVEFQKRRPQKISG
# Assay: PD-seq (MBP pull-down with sequencing); 20 mM Tris-HCl pH 7.5, 100 mM NaCl, 1.5 mM MgCl2, 0.4 uM protein, 0.1 uM dsDNA library, 30 min, room temperature, amylose pull-down; high values mean tight binding
# Conditions: protein: recombinant; tags: His6-MBP; chain copies: 2; dsDNA, one strand shown
# Summary of the method: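 Binding is the reads-per-million enrichment of pull-down relative to input, pooled across replicates. For this, 0.4 µM His6-MBP-tagged mouse FoxP3 or FoxP1 fragment lacking the N-terminus, made in E. coli, was incubated with 0.1 µM Klenow-filled double-stranded degenerate DNA library for 30 min at room temperature in Tris pH 7.5 buffer with NaCl and MgCl2. Complexes bound to amylose resin were washed three times before proteinase K released the DNA for PCR barcoding and Illumina sequencing.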
row,Sequence,binding signal
1,GATGATTGTTCTCCCAGCTGATGAATTAGATTAATCGAGTAAACAAATTTTCCTAATCTTTCTGTTCAAGCGCCATCTAC,1.1 RPM ratio (pull-down/input)
2,GATGATTGTTCTCCCAGCTGATGAATTCAGATAATCGAGTAAACAAATTTTCCTAATCTTTCTGTTCAAGCGCCATCTAC,1.19 RPM ratio (pull-down/input)
3,GATGATTGTTCTCCCAGCTGATGAATTCCCGCGTTCGAGTAAACAAATTTTCCTAATCTTTCTGTTCAAGCGCCATCTAC,0.922 RPM ratio (pull-down/input)
4,GATGATTGTTCTCCCAGCTGATGAATTCTGTGTCTCGAGTAAACAAATTTTCCTAATCTTTCTGTTCAAGCGCCATCTAC,0.971 RPM ratio (pull-down/input)
5,GATGATTGTTCTCCCAGCTGATGAATTCGCACCGTCGAGTAAACAAATTTTCCTAATCTTTCTGTTCAAGCGCCATCTAC,0.878 RPM ratio (pull-down/input)
6,GATGATTGTTCTCCCAGCTGATGAATTACCTAGTTCGAGTAAACAAATTTTCCTAATCTTTCTGTTCAAGCGCCATCTAC,0.987 RPM ratio (pull-down/input)
7,GATGATTGTTCTCCCAGCTGATGAATTACCCCCGTCGAGTAAACAAATTTTCCTAATCTTTCTGTTCAAGCGCCATCTAC,0.876 RPM ratio (pull-down/input)
8,GATGATTGTTCTCCCAGCTGATGAATTTGTCGGTTCGAGTAAACAAATTTTCCTAATCTTTCTGTTCAAGCGCCATCTAC,1.01 RPM ratio (pull-down/input)
9,GATGATTGTTCTCCCAGCTGATGAATTAGACCCATCGAGTAAACAAATTTTCCTAATCTTTCTGTTCAAGCGCCATCTAC,0.927 RPM ratio (pull-down/input)
10,GATGATTGTTCTCCCAGCTGATGAATTCTGCAGGTCGAGTAAACAAATTTTCCTAATCTTTCTGTTCAAGCGCCATCTAC,0.748 RPM ratio (pull-down/input)
11,GATGATTGTTCTCCCAGCTGATGAATTAATGGAATCGAGTAAACAAATTTTCCTAATCTTTCTGTTCAAGCGCCATCTAC,0.934 RPM ratio (pull-down/input)
12,GATGATTGTTCTCCCAGCTGATGAATTAATATTGTCGAGTAAACAAATTTTCCTAATCTTTCTGTTCAAGCGCCATCTAC,2.15 RPM ratio (pull-down/input)
13,GATGATTGTTCTCCCAGCTGATGAATTCCTGCTATCGAGTAAACAAATTTTCCTAATCTTTCTGTTCAAGCGCCATCTAC,0.953 RPM ratio (pull-down/input)
14,GATGATTGTTCTCCCAGCTGATGAATTGATCCGCTCGAGTAAACAAATTTTCCTAATCTTTCTGTTCAAGCGCCATCTAC,0.939 RPM ratio (pull-down/input)
15,GATGATTGTTCTCCCAGCTGATGAATTTAATGGGTCGAGTAAACAAATTTTCCTAATCTTTCTGTTCAAGCGCCATCTAC,0.818 RPM ratio (pull-down/input)
16,GATGATTGTTCTCCCAGCTGATGAATTCTTTTAATCGAGTAAACAAATTTTCCTAATCTTTCTGTTCAAGCGCCATCTAC,0.969 RPM ratio (pull-down/input)

row,Sequence,binding signal
1,GATGATTGTTCTCCCAGCTGATGAATTACATTCGTCGAGTAAACAAATTTTCCTAATCTTTCTGTTCAAGCGCCATCTAC,1.15 RPM ratio (pull-down/input)
2,GATGATTGTTCTCCCAGCTGATGAATTCGGGGTGTCGAGTAAACAAATTTTCCTAATCTTTCTGTTCAAGCGCCATCTAC,0.819 RPM ratio (pull-down/input)
3,GATGATTGTTCTCCCAGCTGATGAATTGCGAGCGTCGAGTAAACAAATTTTCCTAATCTTTCTGTTCAAGCGCCATCTAC,1.01 RPM ratio (pull-down/input)
4,GATGATTGTTCTCCCAGCTGATGAATTGATGAGATCGAGTAAACAAATTTTCCTAATCTTTCTGTTCAAGCGCCATCTAC,0.928 RPM ratio (pull-down/input)
5,GATGATTGTTCTCCCAGCTGATGAATTACATGTTTCGAGTAAACAAATTTTCCTAATCTTTCTGTTCAAGCGCCATCTAC,1.31 RPM ratio (pull-down/input)
6,GATGATTGTTCTCCCAGCTGATGAATTAAGTGTCTCGAGTAAACAAATTTTCCTAATCTTTCTGTTCAAGCGCCATCTAC,0.914 RPM ratio (pull-down/input)
7,GATGATTGTTCTCCCAGCTGATGAATTGGTGTGGTCGAGTAAACAAATTTTCCTAATCTTTCTGTTCAAGCGCCATCTAC,1.04 RPM ratio (pull-down/input)
8,GATGATTGTTCTCCCAGCTGATGAATTTTAAAGCTCGAGTAAACAAATTTTCCTAATCTTTCTGTTCAAGCGCCATCTAC,0.881 RPM ratio (pull-down/input)
9,GATGATTGTTCTCCCAGCTGATGAATTGAACAATTCGAGTAAACAAATTTTCCTAATCTTTCTGTTCAAGCGCCATCTAC,0.984 RPM ratio (pull-down/input)
10,GATGATTGTTCTCCCAGCTGATGAATTGCCAATATCGAGTAAACAAATTTTCCTAATCTTTCTGTTCAAGCGCCATCTAC,1.28 RPM ratio (pull-down/input)
11,GATGATTGTTCTCCCAGCTGATGAATTATTAGGGTCGAGTAAACAAATTTTCCTAATCTTTCTGTTCAAGCGCCATCTAC,0.905 RPM ratio (pull-down/input)
12,GATGATTGTTCTCCCAGCTGATGAATTCGGAAGTTCGAGTAAACAAATTTTCCTAATCTTTCTGTTCAAGCGCCATCTAC,0.856 RPM ratio (pull-down/input)
13,GATGATTGTTCTCCCAGCTGATGAATTATATGAGTCGAGTAAACAAATTTTCCTAATCTTTCTGTTCAAGCGCCATCTAC,0.962 RPM ratio (pull-down/input)
14,GATGATTGTTCTCCCAGCTGATGAATTATCGGAGTCGAGTAAACAAATTTTCCTAATCTTTCTGTTCAAGCGCCATCTAC,0.871 RPM ratio (pull-down/input)
15,GATGATTGTTCTCCCAGCTGATGAATTCCCGCGATCGAGTAAACAAATTTTCCTAATCTTTCTGTTCAAGCGCCATCTAC,0.769 RPM ratio (pull-down/input)
16,GATGATTGTTCTCCCAGCTGATGAATTAAATAAGTCGAGTAAACAAATTTTCCTAATCTTTCTGTTCAAGCGCCATCTAC,1.29 RPM ratio (pull-down/input)
